From the BET-seq Pho4 binding data (Le et al. 2018)
This is one part of the list. These are noisy estimates, calculated here from bound and input reads.

What follows are sequences tested against T1, Pho4 (S. cerevisiae) (UniProt P07270) (assay: relative binding free energy (BET-seq); higher = weaker binding). Conditions: reference: library average.
T1 sequence: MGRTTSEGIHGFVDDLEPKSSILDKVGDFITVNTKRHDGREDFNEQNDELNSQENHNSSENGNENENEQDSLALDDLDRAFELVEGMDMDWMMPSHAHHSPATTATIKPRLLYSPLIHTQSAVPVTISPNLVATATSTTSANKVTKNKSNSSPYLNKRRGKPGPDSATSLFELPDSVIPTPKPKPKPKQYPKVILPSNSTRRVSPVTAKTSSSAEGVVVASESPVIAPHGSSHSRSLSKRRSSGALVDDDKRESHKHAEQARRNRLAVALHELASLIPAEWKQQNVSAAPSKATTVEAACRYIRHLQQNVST

Relative binding free energy, 0.41 kcal/mol:
GAGTTCACGTGGAGGG

Relative binding free energy, -0.28 kcal/mol:
TCGGGCACGTGCGGTA

Relative binding free energy, 0.1 kcal/mol:
GTACGCACGTGATGGA
GTTAGCACGTGATTAT

Relative binding free energy, 0.37 kcal/mol:
GGGTTCACGTGCAAAT
TGCGTCACGTGAAGGC
GTGATCACGTGAAGGA

Relative binding free energy, 0.07 kcal/mol:
TGCATCACGTGGGAGA
TGTAGCACGTGAATAG
AGGGGCACGTGGAAAT

Relative binding free energy, -0.05 kcal/mol:
CGGGTCACGTGGGTGC
GACGGCACGTGGTTTG
TGTTGCACGTGGGTGT
AAAGTCACGTGGGTTC
TTGGTCACGTGGGTAT

Relative binding free energy, 0.09 kcal/mol:
AGGACCACGTGAGGGG
ACTTTCACGTGGGATG
GGTCACACGTGTTGGG

Relative binding free energy, -0.09 kcal/mol:
GGCTGCACGTGCCGGG
TTTTGCACGTGCGTTT
GCGGACACGTGGGGTT
GATCACACGTGGGGTG

Relative binding free energy, 0.03 kcal/mol:
GTATACACGTGTCTGT
GGCCGCACGTGTGTTT
GTCTGCACGTGTGTCT
TTTTGCACGTGTACGA
TGTCACACGTGTTATG
GAAAACACGTGTGTGG
TCAGTCACGTGTTGTA

Relative binding free energy, -0.23 kcal/mol:
TTAGCCACGTGGAGTG

Relative binding free energy, -0.14 kcal/mol:
TTACGCACGTGTGTAG
ACATGCACGTGGTTGT
TATAGCACGTGGGCGG

Relative binding free energy, -0.24 kcal/mol:
AGGGGCACGTGTAGCA

Relative binding free energy, 0.22 kcal/mol:
GGAATCACGTGTGGGT
TGTTTCACGTGGGGAG
TAGTACACGTGTGGAC
TGTAGCACGTGAATGC
TGCTACACGTGTGTGA

Relative binding free energy, -0.06 kcal/mol:
CGTGGCACGTGTTTGA
TTTGGCACGTGACCTT
TAAGGCACGTGTAATA
TTATGCACGTGGTTAA

Relative binding free energy, -0.08 kcal/mol:
ACGTGCACGTGGATGG
TGTGGCACGTGTTGCC
TTGCGCACGTGGAGTT
ATGTACACGTGCGTTA
AAGGGCACGTGATGCT
ATAGTCACGTGTTCTT
TACTGCACGTGGGCGG

Relative binding free energy, -0.32 kcal/mol:
GGACGCACGTGGGTCG

Relative binding free energy, 0.15 kcal/mol:
GGTGACACGTGTAAGT
TGTAACACGTGTGGGA
TAAATCACGTGTGCTG
GATTTCACGTGGAGTA
GCGTTCACGTGTTGTA
TCGGACACGTGTGGTT
AGGGGCACGTGAGGAT

Relative binding free energy, 0.35 kcal/mol:
CTTTTCACGTGTGGAG
GTTTTCACGTGAGTTA
GTATTCACGTGTGGAG
AAGTTCACGTGGTCGT

Relative binding free energy, 0.23 kcal/mol:
TAGAGCACGTGAAGGT
TGCATCACGTGTCATG

Relative binding free energy, 0.17 kcal/mol:
TATGTCACGTGCAGCT
AGGGTCACGTGAATTA
GAAATCACGTGGGTGG

Relative binding free energy, -0.22 kcal/mol:
TCAGGCACGTGCTGGT
TTAACCACGTGGGGGT

Relative binding free energy, 0.12 kcal/mol:
TTTGGCACGTGAGCGG
GGGATCACGTGGCGAG
TTGTGCACGTGTGGGT
TGAGTCACGTGTGGAT

Relative binding free energy, -0.12 kcal/mol:
GGAGGCACGTGGATGT
GGGAGCACGTGCGTCG
GTGGCCACGTGGGGGC
TTGTGCACGTGCTGGT

Relative binding free energy, -0.18 kcal/mol:
GTGAGCACGTGGGTCA
GAAGGCACGTGTGAGG
TTGTGCACGTGGTCGA
GCGGTCACGTGGTGCG
GAAAGCACGTGGGGTC

Relative binding free energy, -0.29 kcal/mol:
CATAACACGTGGGGGT

Relative binding free energy, 0.08 kcal/mol:
GGGGGCACGTGACGAG
ATGTTCACGTGGGCAG
AAGGTCACGTGGTAAT

Relative binding free energy, -0.16 kcal/mol:
CAGGCCACGTGGGGGC

Relative binding free energy, 0.05 kcal/mol:
AGAGTCACGTGGCTTG
CGTAGCACGTGATTGG
GGGGGCACGTGTGGTT
ATGTACACGTGCAGTT
ATAATCACGTGGATGT
AGTTACACGTGTCAGG

Relative binding free energy, 0.16 kcal/mol:
GGCGACACGTGTGTGT
GTGAGCACGTGAGTGG
AACTACACGTGTGGTT

Relative binding free energy, -0.19 kcal/mol:
TATAGCACGTGGGTGT
TCGTACACGTGGGGAT
TTGCGCACGTGGTAGA
GTAGCCACGTGGCGGG
TATGCCACGTGGTTGT

Relative binding free energy, 0.02 kcal/mol:
TTTGGCACGTGATTAC
CCTGGCACGTGTGGAG
ATATACACGTGTGTCT
GATAGCACGTGTGATG
AACGACACGTGTTTGG

Relative binding free energy, 0.18 kcal/mol:
GGGTACACGTGAGCTT
TAGCTCACGTGTATGG
TGTATCACGTGACGTT
AGATGCACGTGAAGCG

Relative binding free energy, -0.1 kcal/mol:
GTTCGCACGTGCGGGT
GCGAGCACGTGGGGTC

Relative binding free energy, 0.39 kcal/mol:
AGTAACACGTGAAGGA
ATTTTCACGTGGTGTC

Relative binding free energy, 0.04 kcal/mol:
TTTCGCACGTGTCGGT
AGATACACGTGGGGAG
ACATGCACGTGAGGGG
GTGTGCACGTGGTCAT
TCTACCACGTGTGGGG
GACGGCACGTGCTGGG

Relative binding free energy, 0.01 kcal/mol:
TGTGCCACGTGATGTT

Relative binding free energy, 0.19 kcal/mol:
GTAATCACGTGGGAAT

Relative binding free energy, -0.2 kcal/mol:
TTACACACGTGGGGTA

Relative binding free energy, 0.29 kcal/mol:
GTATTCACGTGTTGTG
GTTTACACGTGATCTT
TTGTTCACGTGATATC

Relative binding free energy, 0.21 kcal/mol:
ATTAACACGTGAGGGT
TAGGACACGTGAGGGC
AAGGTCACGTGGTATC
CTTTTCACGTGGGTTA
TGTGACACGTGAGAAT
GATGTCACGTGTCTTT
GTAGTCACGTGTTAAG

Relative binding free energy, 0.34 kcal/mol:
TGTGTCACGTGATTTC

Relative binding free energy, -0.11 kcal/mol:
AGCTGCACGTGGGTTT
CTATGCACGTGCGTTT
TTTCGCACGTGGTGTC
GGTGGCACGTGGCATG

Relative binding free energy, -0.25 kcal/mol:
TATGCCACGTGGTATT

Relative binding free energy, 0.31 kcal/mol:
TTTTTCACGTGGCAAG
GATTTCACGTGTTGTA

Relative binding free energy, 0 kcal/mol:
GATTGCACGTGCGGGC
AGGGGCACGTGATGAG
TGAGACACGTGGCGGT
ACGGTCACGTGGTGCG
GGTGACACGTGGTGTC
GTTCGCACGTGTGTAG

Relative binding free energy, -0.02 kcal/mol:
TGGGACACGTGCAGGG
GTCCACACGTGGGGGG
AAGGGCACGTGTTAAG
CTGTTCACGTGGGGCA
ACAGGCACGTGATGGT
CTCGGCACGTGCAGGG

Relative binding free energy, 0.25 kcal/mol:
GTGTTCACGTGCGAGG
AGATACACGTGAATGT
TAGTTCACGTGTATGT

Relative binding free energy, 0.24 kcal/mol:
AGGTTCACGTGGGTCG
GTGTACACGTGGATCG

Relative binding free energy, -0.26 kcal/mol:
TATGGCACGTGGTAAA

Relative binding free energy, -0.17 kcal/mol:
AGAAGCACGTGGGAAG
TTAGCCACGTGGGAGT

Relative binding free energy, 0.26 kcal/mol:
TAATTCACGTGGAGGG
GAGAACACGTGTTGAT
TTAATCACGTGTGAAG
TTGTCCACGTGACGTG
GTTTCCACGTGATGAG
ATTGTCACGTGAGTAT

Relative binding free energy, 0.44 kcal/mol:
ATGGTCACGTGAAAGT
GGACTCACGTGAGGTT

Relative binding free energy, -0.01 kcal/mol:
AAGGACACGTGCGTTT
GTGTGCACGTGGCTTA
ACAAGCACGTGTTAGT
ATTGTCACGTGGCCGG
TTGGGCACGTGGATGG
GGATGCACGTGCAGGT
TATGACACGTGATCGG

Relative binding free energy, 0.14 kcal/mol:
TTCGTCACGTGGAATG
GAGTCCACGTGATGGG
GTTTGCACGTGTGGCA

Relative binding free energy, 0.06 kcal/mol:
GTCTGCACGTGTTGGT
TATGGCACGTGTATTT
TAGGTCACGTGCTGGA
TGATGCACGTGGAAGT

Relative binding free energy, 0.11 kcal/mol:
TTCATCACGTGGGGAT
TTGTCCACGTGCTTTA
ATTCGCACGTGTTAAT
TAAAGCACGTGAGGGT
TGTGGCACGTGAATAG
CGTTGCACGTGTGGAC

Relative binding free energy, -0.04 kcal/mol:
GGCGGCACGTGTGGCG
TCAGTCACGTGGTATG
GGGTGCACGTGGTTAC

Relative binding free energy, 0.32 kcal/mol:
GTGTTCACGTGGAATA
TGATTCACGTGGTCAG

Relative binding free energy, 0.3 kcal/mol:
TTTTTCACGTGTGTAC
GGGGTCACGTGACTAT

Relative binding free energy, -0.03 kcal/mol:
TATCACACGTGGTTGG
TATGGCACGTGTAGCT
TGTGCCACGTGTTGAT

Relative binding free energy, -0.15 kcal/mol:
GGTAGCACGTGTTGTC
ATCGGCACGTGTTTGT

Relative binding free energy, 0.33 kcal/mol:
GTTCTCACGTGGTATT
TAGTACACGTGTGATC

Relative binding free energy, -0.07 kcal/mol:
TTGTACACGTGGTGAA
TTAGGCACGTGGAGCG
CGTAGCACGTGTTAAT
TATGTCACGTGTTTCA
TGTGTCACGTGCGAGC
GGTACCACGTGTTGTA

Relative binding free energy, 0.28 kcal/mol:
CTTATCACGTGAGTGG
TAATTCACGTGTGTAG
TTTATCACGTGTAATT
AGTTTCACGTGATTTC
TATGTCACGTGAGCAA

Relative binding free energy, 0.27 kcal/mol:
CCATTCACGTGGTTTT
GCTTTCACGTGTTTTA
GCTTTCACGTGTATGG

Relative binding free energy, -0.13 kcal/mol:
TGGTCCACGTGGGGGT
TTGACCACGTGTAGTG
TCTAGCACGTGTGTAG

Relative binding free energy, 0.2 kcal/mol:
AGGTGCACGTGAAAGC
AAGTTCACGTGTATTG
TTGATCACGTGATGCT
GCGGTCACGTGTGTTT
AGTTTCACGTGCGAGG

Relative binding free energy, 0.13 kcal/mol:
TCTCTCACGTGGGGTG
TAGTTCACGTGAATAG
GGTCTCACGTGGGGTC
GCGGGCACGTGACTGT

Relative binding free energy, 0.4 kcal/mol:
GTTTTCACGTGAGCGG
